{
  "source": "patent US20220381657A1",
  "about": "“METHOD FOR PREPARING BIOLOGICAL MATERIAL HAVING EXCELLENT LIGHT-TRANSMITTING PROPERTY” (RIKEN, priority 2016, published 2022)",
  "data": [
    {"system": "Serius", "conditions": "Table 1; PBS = 1.00", "values": [
      {"compound": "CCCCN(CCO)CCO", "note": "[#0414, N-Butyldiethanolamine]", "1st quenching assay Relative Fluorescence of Serius": 0.70},
      {"compound": "Tween ® 80 [#1460]", "1st quenching assay Relative Fluorescence of Serius": 0.91},
      {"compound": "CC1(C)CC(N)CC(C)(CN)C1", "note": "(stereo not shown) [#1602, Isophoronediamine]", "1st quenching assay Relative Fluorescence of Serius": 0.53},
      {"compound": "CC(C)(C)N(CCO)CCO", "note": "[#0390, N-tert- Butyldiethanolamine]", "1st quenching assay Relative Fluorescence of Serius": 0.72},
      {"compound": "CCCCCCCCCCS(=O)(=O)[O-].[Na+]", "note": "[#0625, Sodium 1-decanesulfonate]", "1st quenching assay Relative Fluorescence of Serius": 0.93},
      {"compound": "CCCCCCCCCS(=O)(=O)[O-].[Na+]", "note": "[#0870, Sodium 1-nonanesulfonate]", "1st quenching assay Relative Fluorescence of Serius": 1.05},
      {"compound": "CC(O)CN(CCN(CC(C)O)CC(C)O)CC(C)O", "note": "(stereo not shown) [Quadrol ®, reference compound]", "1st quenching assay Relative Fluorescence of Serius": 0.57},
      {"compound": "CN(C)C(=N)N(C)C", "note": "[#1444, 1,1,3,3-Tetramethylguanidine]", "1st quenching assay Relative Fluorescence of Serius": 0.14},
      {"compound": "CC(C)CCN", "note": "[#1038, Isoamylamine]", "1st quenching assay Relative Fluorescence of Serius": 0.30},
      {"compound": "CCCCC(O)CO", "note": "(stereo not shown) [#1051, 1,2-Hexanediol]", "1st quenching assay Relative Fluorescence of Serius": 0.84},
      {"compound": "NCC1CCCC(CN)C1", "note": "(stereo not shown) [#0070, 1,3-Bis(aminomethyl) cyclohexane]", "1st quenching assay Relative Fluorescence of Serius": 0.52},
      {"compound": "Tween ® 40 [#1455]", "1st quenching assay Relative Fluorescence of Serius": 0.64},
      {"compound": "Cc1cccc(C)n1", "note": "[#1008, 2,6-Lutidine]", "1st quenching assay Relative Fluorescence of Serius": 0.71},
      {"compound": "NCC1CCC(CN)CC1", "note": "(stereo not shown) [#0071, 1,4-Bis(aminomethyl) cyclohexane]", "1st quenching assay Relative Fluorescence of Serius": 0.56},
      {"compound": "Cc1ccnc(C)c1", "note": "[#1312, 2,4-Lutidine]", "1st quenching assay Relative Fluorescence of Serius": 0.84},
      {"compound": "CCCCCCCCCC(=O)N(C)CC(=O)[O-].[Na+]", "note": "[#0703, N-Decanoylsarcosine sodium salt]", "1st quenching assay Relative Fluorescence of Serius": 1.03},
      {"compound": "OCC(O)c1ccccc1", "note": "(stereo not shown) [#1074, 1-Phenylethane-1,2-diol]", "1st quenching assay Relative Fluorescence of Serius": 0.58},
      {"compound": "CN1CCCC1", "note": "[#1295, 1-Methylpyrrolidine]", "1st quenching assay Relative Fluorescence of Serius": 0.66},
      {"compound": "CCCCCCCCCCCS(=O)(=O)[O-].[Na+]", "note": "[#1419, Sodium 1-undecanesulfonate]", "1st quenching assay Relative Fluorescence of Serius": 1.03},
      {"compound": "CC(C)NCCCN", "note": "[#1027, N-Isopropyl-1,3-diaminopropane]", "1st quenching assay Relative Fluorescence of Serius": 0.55},
      {"compound": "CCCCNCCN", "note": "[#0422, N-Butylethylenediamine]", "1st quenching assay Relative Fluorescence of Serius": 0.68}
    ]},
    {"system": "Serius", "conditions": "Table 3; PBS = 1.00", "values": [
      {"compound": "CNC(=S)NC", "note": "[#0637, 1,3-Dimethyl-thiourea]", "1st quenching assay Relative Fluorescence of Serius": 1.05}
    ]}
  ]
}
